Substitutions are numbered along the chain they refer to. Numbers in names are those of the source. These are yes or no findings as the source states them, for the method shown. In cells and extracts the contact can be indirect. Some binding calls cover weakened binding; strength is not graded here. For some assays here: Where a sequence is shown, tags or fusion partners need not be part of it.
Experiments:
[1] = target: T1, starch-binding domain containing protein 1 (STBD1) (human (endogenous in MCF-7, MCF-7/DDP, A549/5-Fu, HEK293T)) (UniProt O95210); experiment: co-IP; HEK293T cells transfected with tagged plasmids, treated with H2O2 (200 uM where printed) for 30 minutes or DDP (20 uM) for 12 hours; anti-Flag M2, anti-Myc or anti-HA beads, or anti-STBD1; Western blot
T1 sequence: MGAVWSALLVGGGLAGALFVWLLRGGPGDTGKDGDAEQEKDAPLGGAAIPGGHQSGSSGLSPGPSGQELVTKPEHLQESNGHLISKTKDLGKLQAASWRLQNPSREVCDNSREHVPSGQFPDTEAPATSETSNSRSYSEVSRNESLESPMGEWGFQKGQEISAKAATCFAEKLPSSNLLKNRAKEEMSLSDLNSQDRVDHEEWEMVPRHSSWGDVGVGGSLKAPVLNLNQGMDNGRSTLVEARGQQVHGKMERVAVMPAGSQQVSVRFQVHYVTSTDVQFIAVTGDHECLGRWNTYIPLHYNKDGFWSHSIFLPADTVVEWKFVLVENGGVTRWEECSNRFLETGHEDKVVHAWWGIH

Chains of the proteins cited; added tags and fusions are not shown. Lines headed by an entry give the natural chain unless they say otherwise; changes in a name come on top. A line that says so, or that is headed by a name, gives the form on record, which may keep a tag or linker. Residues count along the entry.
Flag-tagged human AHR (Flag-AHR) (P35869, residues 11-848): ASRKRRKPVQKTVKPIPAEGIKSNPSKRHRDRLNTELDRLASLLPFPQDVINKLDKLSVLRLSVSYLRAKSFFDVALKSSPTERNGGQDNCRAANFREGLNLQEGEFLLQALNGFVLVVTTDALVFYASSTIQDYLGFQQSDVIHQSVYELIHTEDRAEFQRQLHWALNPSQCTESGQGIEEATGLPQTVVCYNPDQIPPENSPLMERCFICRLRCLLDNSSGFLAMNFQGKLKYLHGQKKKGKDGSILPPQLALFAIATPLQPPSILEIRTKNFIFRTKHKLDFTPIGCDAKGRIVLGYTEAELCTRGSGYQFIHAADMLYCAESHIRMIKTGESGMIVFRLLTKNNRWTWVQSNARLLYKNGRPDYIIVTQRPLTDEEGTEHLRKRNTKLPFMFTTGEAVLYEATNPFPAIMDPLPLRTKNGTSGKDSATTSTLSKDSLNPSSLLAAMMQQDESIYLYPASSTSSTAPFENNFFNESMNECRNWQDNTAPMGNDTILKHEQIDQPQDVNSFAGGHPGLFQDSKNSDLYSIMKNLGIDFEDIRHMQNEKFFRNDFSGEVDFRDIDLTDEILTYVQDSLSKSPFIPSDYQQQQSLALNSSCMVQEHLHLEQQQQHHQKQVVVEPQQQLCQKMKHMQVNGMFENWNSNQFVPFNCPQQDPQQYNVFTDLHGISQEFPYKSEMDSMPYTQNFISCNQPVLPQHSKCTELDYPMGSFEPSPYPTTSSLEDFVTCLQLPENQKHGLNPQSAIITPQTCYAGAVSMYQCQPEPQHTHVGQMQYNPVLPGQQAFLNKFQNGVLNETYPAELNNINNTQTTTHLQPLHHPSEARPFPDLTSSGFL
Myc-AHR(C300A) (P35869, form named): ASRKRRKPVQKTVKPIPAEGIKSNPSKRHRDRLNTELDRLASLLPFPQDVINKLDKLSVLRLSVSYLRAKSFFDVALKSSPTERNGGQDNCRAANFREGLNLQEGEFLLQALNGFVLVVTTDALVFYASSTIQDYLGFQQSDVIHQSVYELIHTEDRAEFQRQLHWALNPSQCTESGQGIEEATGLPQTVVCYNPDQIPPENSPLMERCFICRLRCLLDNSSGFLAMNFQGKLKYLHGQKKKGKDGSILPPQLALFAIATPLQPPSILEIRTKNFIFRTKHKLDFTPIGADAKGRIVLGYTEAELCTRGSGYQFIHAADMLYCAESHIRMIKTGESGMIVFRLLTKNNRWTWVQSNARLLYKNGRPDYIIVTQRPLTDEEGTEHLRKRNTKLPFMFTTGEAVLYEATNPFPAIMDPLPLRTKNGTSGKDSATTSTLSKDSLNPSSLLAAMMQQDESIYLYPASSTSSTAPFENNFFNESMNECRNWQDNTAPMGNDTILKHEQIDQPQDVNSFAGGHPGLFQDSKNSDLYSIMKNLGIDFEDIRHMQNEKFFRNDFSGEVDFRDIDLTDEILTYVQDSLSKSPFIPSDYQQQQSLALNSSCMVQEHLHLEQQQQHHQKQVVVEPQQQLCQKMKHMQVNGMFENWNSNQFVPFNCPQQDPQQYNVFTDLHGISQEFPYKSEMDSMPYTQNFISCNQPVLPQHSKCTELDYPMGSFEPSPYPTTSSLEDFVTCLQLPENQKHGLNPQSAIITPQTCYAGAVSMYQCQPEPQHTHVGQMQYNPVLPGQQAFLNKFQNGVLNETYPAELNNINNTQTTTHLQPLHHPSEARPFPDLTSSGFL

[2] = target: T2, HA-PTG (UniProt Q9UQK1); experiment: as above
T2 sequence: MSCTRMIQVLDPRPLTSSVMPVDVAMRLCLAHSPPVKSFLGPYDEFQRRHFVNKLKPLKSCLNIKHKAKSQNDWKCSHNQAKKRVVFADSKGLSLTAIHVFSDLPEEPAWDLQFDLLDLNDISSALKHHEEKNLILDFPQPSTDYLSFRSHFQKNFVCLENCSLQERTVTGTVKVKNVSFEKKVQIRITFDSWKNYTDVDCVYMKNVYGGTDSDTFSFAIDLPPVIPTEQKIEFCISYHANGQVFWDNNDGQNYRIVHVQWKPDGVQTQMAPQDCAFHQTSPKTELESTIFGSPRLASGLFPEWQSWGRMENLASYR

[3] = target: T1, starch-binding domain containing protein 1 (STBD1) (human (endogenous in MCF-7, MCF-7/DDP, A549/5-Fu, HEK293T)); experiment: co-IP; endogenous proteins in lysates of tumor cells (MCF-7, MCF-7/DDP, A549/5-Fu), untreated or treated with DDP or 5-Fu for 24 hours, some with si-Ctrl or si-AHR; indicated antibodies (anti-STBD1, anti-HSP90, anti-AHR, anti-p-PYGL, anti-PTG) overnight at 4 C, Protein A/G beads; Western blot
[4] = target: aryl hydrocarbon receptor (AHR) (human (endogenous in MCF-7/DDP, A549/5-Fu)) (UniProt P35869); experiment: as above
[5] = target: T1, starch-binding domain containing protein 1 (STBD1) (human (endogenous in MCF-7, MCF-7/DDP, A549/5-Fu, HEK293T)); experiment: as above; remark: listed apart in the source
[6] = target: Myc-AHR (human) (UniProt P35869); experiment: co-IP; HEK293T cells transfected with tagged plasmids, treated with H2O2 (200 uM where printed) for 30 minutes or DDP (20 uM) for 12 hours; anti-Flag M2, anti-Myc or anti-HA beads, or anti-STBD1; Western blot
[7] = target: Flag-tagged human AHR (Flag-AHR) (human) (UniProt P35869); experiment: as above

Molecule: Myc-AHR (from UniProt P35869 11-848)
- binding [1]: binds

Molecule: Flag-tagged human AHR (Flag-AHR) (from UniProt P35869 11-848)
- binding [2]: binds

Molecule: aryl hydrocarbon receptor (AHR) (from UniProt P35869 11-848)
- binding [3]: binds

Molecule: Myc-AHR(C300A) (from UniProt P35869 11-848)
- binding [1]: no binding

B1: AHR-interacting protein (AIP) (protein, UniProt O00170 1-330)
chain: MADIIARLREDGIQKRVIQEGRGELPDFQDGTKATFHYRTLHSDDEGTVLDDSRARGKPMELIIGKKFKLPVWETIVCTMREGEIAQFLCDIKHVVLYPLVAKSLRNIAVGKDPLEGQRHCCGVAQMREHSSLGHADLDALQQNPQPLIFHMEMLKVESPGTYQQDPWAMTDEEKAKAVPLIHQEGNRLYREGHVKEAAAKYYDAIACLKNLQMKEQPGSPEWIQLDQQITPLLLNYCQCKLVVEEYYEVLDHCSSILNKYDDNVKAYFKRGKAHAAVWNAQEAQADFAKVLELDPALAPVVSRELRALEARIRQKDEEDKARFRGIFSH
- binding [4]: binds
- binding [5]: no binding

B2: PPP1R3 family member PPP1R3C (PTG) (protein, UniProt Q9UQK1 1-317)
chain: T2 sequence
- binding [4]: binds

B3: HA-PTG(1-138) (domain or fragment, UniProt Q9UQK1 1-138)
chain: MSCTRMIQVLDPRPLTSSVMPVDVAMRLCLAHSPPVKSFLGPYDEFQRRHFVNKLKPLKSCLNIKHKAKSQNDWKCSHNQAKKRVVFADSKGLSLTAIHVFSDLPEEPAWDLQFDLLDLNDISSALKHHEEKNLILDF
- binding [6]: binds

B4: HA-PTG (protein, UniProt Q9UQK1 1-317)
chain: T2 sequence
- binding [7]: binds

B5: HA-PTG(139-317) (domain or fragment, UniProt Q9UQK1 139-317)
chain: PQPSTDYLSFRSHFQKNFVCLENCSLQERTVTGTVKVKNVSFEKKVQIRITFDSWKNYTDVDCVYMKNVYGGTDSDTFSFAIDLPPVIPTEQKIEFCISYHANGQVFWDNNDGQNYRIVHVQWKPDGVQTQMAPQDCAFHQTSPKTELESTIFGSPRLASGLFPEWQSWGRMENLASYR
- binding [6]: no binding

B6: HA-PTG(V85A/F87A) (protein, UniProt Q9UQK1 1-317)
chain: T2 sequence with V85A, F87A
- binding [7]: no binding
